{"source": "the RNAGym collection of RNA variant scans (doi:10.7554/elife.90254)", "parents": {"B1": {"name": "LINE1-mini (parent)", "chain": "GGCAGAGCUCAACACAGCGUGGCAAAGUGGCUGUGGCUAGACUGCC"}}, "note": "Read counts are not given, so values of variants with three or more changes are uncertain."}
{"variants_of": "B1", "assay": "self-cleavage, relative activity (ratio to wild type); higher = more cleavage; in vitro, sequencing; the parent is a self-cleaving ribozyme"}
{"variant": "GGCAGAGCUCAAUACUGCGUGGCAAAGUGGAUGUGGCUAGACUGCC", "note": "[C13U A16U C31A]", "self-cleavage": 0.11}
{"variant": "GGCAGAGCUCAAUACAGCGUGGCCAAGUGGUUGUGGCUAGACUGCC", "note": "[C13U A24C C31U]", "self-cleavage": 0.03}
{"variant": "GGCAGAGCUCAAUACAGCGUGGCGAAGUUGCUGUGGCUAGACUGCC", "note": "[C13U A24G G29U]", "self-cleavage": 0.21}
{"variant": "GGCAGAGCUCAAUACAGCGUGGCUCAGUGGCUGUGGCUAGACUGAC", "note": "[C13U A24U A25C C45A]", "self-cleavage": 0.08}
{"variant": "GGCAGAGCUCAAUACAGCGUGGCUAAGUGGCUGUGGAUAGACUGCC", "note": "[C13U A24U C37A]", "self-cleavage": 0.02}
{"variant": "GGCAGAGCUCAAUACAGCGUGGCUAAGUGGCUGCGGCUAGACUGCC", "note": "[C13U A24U U34C]", "self-cleavage": 0.07}
{"variant": "GGCAGAGCUCAAUACAGCGUGGCACCGUGGCUGUGGCUAGACUGCU", "note": "[C13U A25C A26C C46U]", "self-cleavage": 0.07}
{"variant": "GGCAGAGCUCAAUACAGCGUGGCACAGUGGCUGUGGCUACACUGCC", "note": "[C13U A25C G40C]", "self-cleavage": 0.01}
{"variant": "GGCAGAGCUCAAUACAGCGUGGCAUACUGGCUAUGGCUAGACUGCC", "note": "[C13U A25U G27C G33A]", "self-cleavage": 0.09}
{"variant": "GGCAGAGCUCAAUACAGCGUGGCAUAGGGGCUAUGGCUAGACUGCC", "note": "[C13U A25U U28G G33A]", "self-cleavage": 0.03}
{"variant": "GGCAGAGCUCAAUACAGCGUGGCAACGUGGCUGUGUCUAGACUGCC", "note": "[C13U A26C G36U]", "self-cleavage": 0.06}
{"variant": "GGCAGAGCUCAAUACAGCGUGGCAAUGUGGCUGUGGCUAGCCUGCU", "note": "[C13U A26U A41C C46U]", "self-cleavage": 0.02}
{"variant": "GGCAGAGCUCAAUACAGCGUGGCAAUGUGGCUGUGGCUAGGCUGCC", "note": "[C13U A26U A41G]", "self-cleavage": 0.1}
{"variant": "GGCAGAGCUCAAUACAGCGUGGCAAUGUGGCUGUGGCUAGAGUGCC", "note": "[C13U A26U C42G]", "self-cleavage": 0.11}
{"variant": "GGCAGAGCUCAAUACAGCGUGGCAAUGUGGCUGCGGCUAGACUGCC", "note": "[C13U A26U U34C]", "self-cleavage": 0.06}
{"variant": "GGCAGAGCUCAAUACAGCGUGGCAAAGUGGCUGUGGCUCGUCUGCC", "note": "[C13U A39C A41U]", "self-cleavage": 0.14}
{"variant": "GGCAGAGCUCAAUACAGCGUGGCAAAGUGGCUGUGGCUCGACUGAC", "note": "[C13U A39C C45A]", "self-cleavage": 0.04}
{"variant": "GGCAGAGCUCAAUACAGCGUGGCAAAGUGGCUGUGGCUAGCGUGCC", "note": "[C13U A41C C42G]", "self-cleavage": 0.14}
{"variant": "GGCAGAGCUCAAUACAGCGUGGCAAAGUGGCUGUGGCUAGUCUGCG", "note": "[C13U A41U C46G]", "self-cleavage": 0.1}
{"variant": "GGCAGAGCUCAAUAAGGCGUGGCAAAGUGGCUGUGGCAAGACUGCC", "note": "[C13U C15A A16G U38A]", "self-cleavage": 0.03}
{"variant": "GGCAGAGCUCAAUAAAGCGUGGCAAAGUGGCUGUGGCUUGACCGCU", "note": "[C13U C15A A39U U43C C46U]", "self-cleavage": 0.06}
{"variant": "GGCAGAGCUCAAUAAAACGUGGCAAAGUGGCUGUGGCUAGUCUGCA", "note": "[C13U C15A G17A A41U C46A]", "self-cleavage": 0.09}
{"variant": "GGCAGAGCUCAAUAAAGCGUGUCAAAGUGGAUGUGGCUAGACUGCC", "note": "[C13U C15A G22U C31A]", "self-cleavage": 0.16}
{"variant": "GGCAGAGCUCAAUAGAGCGUGGCAUAGUUGCUGUGGCUAGACUGCC", "note": "[C13U C15G A25U G29U]", "self-cleavage": 0.02}
{"variant": "GGCAGAGCUCAAUAGAGCGUGGCAAAGUGGCUGUGGCUCUACUGCC", "note": "[C13U C15G A39C G40U]", "self-cleavage": 0.02}
{"variant": "GGCAGAGCUCAAUAGAGAUUGGCAAAGUGGCAGUGGCUAGACUGCC", "note": "[C13U C15G C18A G19U U32A]", "self-cleavage": 0.04}
{"variant": "GGCAGAGCUCAAUAGAUCGUGGCAAAGUGGCUGUGGCUAGACUGCC", "note": "[C13U C15G G17U]", "self-cleavage": 0.02}
{"variant": "GGCAGAGCUCAAUAGAGCGGGGCAAAGUGGCUGGGGCUAGACUGCC", "note": "[C13U C15G U20G U34G]", "self-cleavage": 0.01}
{"variant": "GGCAGAGCUCAAUAUAGCGUGGCAAAGUGGUUGUGGCUAGACUGCC", "note": "[C13U C15U C31U]", "self-cleavage": 0.04}
{"variant": "GGCAGAGCUCAAUACAGAGUGGCAAAGUGCCUGUGGCUAGACUGCC", "note": "[C13U C18A G30C]", "self-cleavage": 0.02}
{"variant": "GGCAGAGCUCAAUACAGAGUGGCAAAGAGGCUGUGGUUAGACUGCC", "note": "[C13U C18A U28A C37U]", "self-cleavage": 0.01}
{"variant": "GGCAGAGCUCAAUACAGUGUUGCAGACUGGCUGUGGCUAGACUGCC", "note": "[C13U C18U G21U A25G G27C]", "self-cleavage": 0.02}
{"variant": "GGCAGAGCUCAAUACAGUGGGGUAAAGUGGCUGUGGCUAGACUGCC", "note": "[C13U C18U U20G C23U]", "self-cleavage": 0.22}
{"variant": "GGCAGAGCUCAAUACAGUGUGGCAAAGAGGCUGUGGCUAGACUGCA", "note": "[C13U C18U U28A C46A]", "self-cleavage": 0.06}
{"variant": "GGCAGAGCUCAAUACAGCGUGGAAAAGUGGCUUUGGCUAGACUUCC", "note": "[C13U C23A G33U G44U]", "self-cleavage": 0.61}
{"variant": "GGCAGAGCUCAAUACAGCGUGGGAAAGUCGCUGUGGCUAGACUACC", "note": "[C13U C23G G29C G44A]", "self-cleavage": 0.07}
{"variant": "GGCAGAGCUCAAUACAGCGUGGUAGAGAGGCUGUGGCUAGACUGCC", "note": "[C13U C23U A25G U28A]", "self-cleavage": 0.19}
{"variant": "GGCAGAGCUCAAUACAGCGUGGUAAAAUGGCUGUGGCUAGACUGCC", "note": "[C13U C23U G27A]", "self-cleavage": 0.38}
{"variant": "GGCAGAGCUCAAUACAGCGUGGUAAAGUUGCUGUGGCUAGACUGCC", "note": "[C13U C23U G29U]", "self-cleavage": 0.14}
{"variant": "GGCAGAGCUCAAUACAGCGUGGCAAAGUGGAUGUGGUUAGACUGCU", "note": "[C13U C31A C37U C46U]", "self-cleavage": 0.12}
{"variant": "GGCAGAGCUCAAUACAGCGUGGCAAAGUGGGGGUGACUAGACUGCG", "note": "[C13U C31G U32G G36A C46G]", "self-cleavage": 0.03}
{"variant": "GGCAGAGCUCAAUACAGCGUGGCAAAGUGGCUGUGGCUAGACUGAU", "note": "[C13U C45A C46U]", "self-cleavage": 0.15}
{"variant": "GGCAGAGCUCAAUACAACGUGGCAUAGUGGCUGUGACUUGACUGCC", "note": "[C13U G17A A25U G36A A39U]", "self-cleavage": 0.04}
{"variant": "GGCAGAGCUCAAUACAACGUGGCAAGGUGGCUGUGGCUAGACUGCC", "note": "[C13U G17A A26G]", "self-cleavage": 0.03}
{"variant": "GGCAGAGCUCAAUACAACUUGGCAAAGUGGCUGUGGCUAGACUGCC", "note": "[C13U G17A G19U]", "self-cleavage": 0.05}
{"variant": "GGCAGAGCUCAAUACAACGUAGCAAAAGGGCGGCGGCUAGACUGCC", "note": "[C13U G17A G21A G27A U28G U32G U34C]", "self-cleavage": 0.11}
{"variant": "GGCAGAGCUCAAUACACCGUGGCCUAGUGGCUGUGGCUAGACCGCC", "note": "[C13U G17C A24C A25U U43C]", "self-cleavage": 0.03}
{"variant": "GGCAGAGCUCAAUACAUCGUGGCAAUGUGACUGUGGCUAAACUGUC", "note": "[C13U G17U A26U G30A G40A C45U]", "self-cleavage": 0.03}
{"variant": "GGCAGAGCUCAAUACAUCAUGGCUAAGUGGCUGUGGCAAGACUGCC", "note": "[C13U G17U G19A A24U U38A]", "self-cleavage": 0.02}
{"variant": "GGCAGAGCUCAAUACAUCGUAGCAAAGUGGCUGUGGCUAGACUUCC", "note": "[C13U G17U G21A G44U]", "self-cleavage": 0.02}
{"variant": "GGCAGAGCUCAAUACAUCGUGGCAAAGUAGCUGGGGCUAGACUGCC", "note": "[C13U G17U G29A U34G]", "self-cleavage": 0}
{"variant": "GGCAGAGCUCAAUACAUCGUGGCAAAGUGUUUGUGGCUAGACUGCC", "note": "[C13U G17U G30U C31U]", "self-cleavage": 0.43}
{"variant": "GGCAGAGCUCAAUACAGCAUGGCUAAGUGGCUGUUGCUAAACUCCC", "note": "[C13U G19A A24U G35U G40A G44C]", "self-cleavage": 0.1}
{"variant": "GGCAGAGCUCAAUACAGCAUGGCAAAGUGGCUGUGGCUAAACUGCC", "note": "[C13U G19A G40A]", "self-cleavage": 0.2}
{"variant": "GGCAGAGCUCAAUACAGCUUGGCAAAGUGGCUGUGGCUUGACUGCC", "note": "[C13U G19U A39U]", "self-cleavage": 0.13}
{"variant": "GGCAGAGCUCAAUACAGCUUGGCAAAGUGGCUCUGGCUAGACUGCC", "note": "[C13U G19U G33C]", "self-cleavage": 0.03}
